Reference: PubChem BioAssay (NCI)
Where “and” joins values, the source holds several entries; their conditions need not be identical. Identical values can stand only once.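 96-well plates; 48 h exposure; 5 concentrations. Endpoints by linear interpolation between flanking doses. Not reached: highest tested concentration assigned. GI50 is the concentration that inhibits growth by half. TGI marks complete inhibition of growth.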

test system: NCI-H322M lung; experiment: NCI tumour cell line growth inhibition, 48 h

SMILES	TGI	GI50
O=C(Cc1nc2ccccc2s1)C(=O)Nc1cccc(C(F)(F)F)c1	> 100 µM	
CSCSCC(CO)NC(=O)/C=C\c1c(C)[nH]c(=O)[nH]c1=O (configuration not stated)	105 µM	
CC(=O)N1CCOC12N=NC(C)(C)O2 (configuration not stated)	> 100 µM	
COc1cccc(C2C(C#N)=C(N)Oc3cc(OCCCCCC[P+](c4ccccc4)(c4ccccc4)c4ccccc4)ccc32)c1 (configuration not stated)	2.97 µM	1.55 µM
CN1CCC(O)(OC(=O)C(c2ccccc2)C2(O)CCCC2)CC1 (configuration not stated)	> 100 µM	
Cc1cccc(NC(=S)Nc2cccc(Cl)c2)n1	> 100 µM	
Oc1c(NCn2nc(CCCCCCCCc3nn(CNc4ccc5ccccc5c4O)c(=S)o3)oc2=S)ccc2ccccc12	> 100 µM	
CCOC(=O)c1cnc2n(c1=O)[C@H]1CCCC[C@@H]1N2	> 100 µM	
C[C@H](CCc1nc(C#N)c(N)o1)[C@H]1CC[C@H]2[C@@H]3CCC4C[C@@H](O)CC[C@]4(C)[C@H]3C[C@@H](O)[C@]12C (some centres not stated)	31.7 µM	
COC(=O)c1ccc(C)cc1C1CN=NC12Cc1cccc(C)c1C2=O (configuration not stated)	> 100 µM	
O=S1(=O)N=C(SCc2c[nH]c3ccccc23)N(c2ccccc2)c2ccncc21	> 100 µM	
C[C@@H]([C@H]1CC[C@@]2(C)[C@@H]3CC[C@@H]4C(=CC3=CC[C@]12C)CC[C@H](N(C)C)C4(C)C)N(C)C	> 100 µM	
Cc1cc(C)nc(NC(=O)COc2ccc(Cl)cc2)c1	> 100 µM	
Cc1c(-c2ccc(-c3ccccc3F)cc2)nc2ccc(F)cc2c1C(=O)O	220 µM and 478 µM	41.2 µM
O=C1CC(c2cccc([N+](=O)[O-])c2)C2(C(=O)NC(=S)NC2=O)C(c2cccc([N+](=O)[O-])c2)C1 (configuration not stated)	42.3 µM	
CCNC(=O)COc1ccc(Cl)c(C)c1	> 100 µM	
O=C(O)C12C=CC(C1)c1ccccc12 (configuration not stated)	> 100 µM	
C=CCN1C(=O)C[C@H](Cc2ccccc2)NC(=O)C[C@H](Cc2ccccc2)N(CC=C)C(=O)C[C@H](Cc2ccccc2)NC(=O)C[C@@H]1Cc1ccccc1	> 100 µM	
CC(C)=CC(=O)OC1C2C(C)=CC(=O)C(O)C2(C)C2C3(O)OCC24C(CC(=O)OC14)C(C)C3O (configuration not stated)	0.623 µM and 3.13 µM and 0.776 µM	0.13 µM and 0.0969 µM
COC1CCC(CO)OO1 (configuration not stated)	> 100 µM	
CCSc1c2ccccc2nc2c(OC)ccc(OC)c12	69 µM	
C/C(=N/NC(N)=S)C(CN1CCOCC1)C(C1=C(O)c2ccccc2OC1)c1ccccc1 (configuration not stated)	> 100 µM	
COC(=O)[C@@H]1C=CCN1S(=O)(=O)c1ccc(C)cc1	> 100 µM	
O=C1N=C2N=C(c3ccc(Cl)cc3)N(c3ccc(Cl)cc3)N2Sc2ccccc21	> 100 µM	
C=C1C(=O)OC2C[C@@]3(C)CCCC(=C)C3CC12 (some centres not stated)	28.5 µM	

SMILES	TGI	GI50
CC(=O)c1nc(-c2ccc(C[C@@H](CNC(=O)CN(C)C)NC(=O)c3ccc(OC(C)C)c(Cl)c3)cc2)cn1C	19 µM	0.121 µM
COC(=O)c1c(C(=O)O)c(-c2ccccc2)c(-c2ccccc2)c(-c2ccccc2)c1-c1ccccc1	> 100 µM	> 100 µM
C/C(N=NS(=O)(=O)c1c(C)cc(C)cc1C)=C1\C=CC=CN1O	> 100 µM	
O=C(CCC(NC(=O)OCc1ccccc1)C(=O)OCc1ccccc1)Nc1cccc(OCc2ccccc2)c1 (configuration not stated)	79.9 µM	
C=C1c2nc3ccccc3n2C=C(c2ccccc2)N1c1ccc(C)cc1	> 100 µM	
COc1cc(C=NCC(=O)CSC(c2ccccc2)c2ccccc2)ccc1O	29.9 µM	11.5 µM
CCCCC[C@H]1C/C=C2/C(=O)C=C[C@@H]2C/C=C\CCCC(=O)O1	4.77 µM	0.564 µM
CN(Cc1cnc2nc(N)nc(N)c2n1)c1c(Cl)cc(C(=O)NC(CCC(=O)O)C(=O)O)cc1Cl (configuration not stated)	> 100 µM	0.0319 µM
CCS(=O)(=O)c1cccc(-c2cc(C(=O)NC3CCN(C)CC3)c(C)c3[nH]c4ncc(C)cc4c23)c1	> 9.05 µM and 5.09 µM	1.23 µM and 1.14 µM
Cc1ccc(N2Cc3c(ccc4ccccc34)OP2(=S)N2CCCC2)cc1 (configuration not stated)	> 100 µM	
COc1ccc(OCC(=O)O)c2c1CCC(C)C2=O (configuration not stated)	> 100 µM	
COC1(C)CCC(OS(C)(=O)=O)CO1 (configuration not stated)	> 100 µM	
CSC(=S)NCc1cn(C)c2ccccc12	> 100 µM	45.4 µM
C/C(=N\NC(=S)N1CCCC1)c1ccccn1	11.2 µM	< 0.01 µM
COc1ccc(-c2c(/C=N/OCC(=O)O)c3sc4ccccc4n3c2/C=N/OCC(=O)O)cc1	> 50 µM	
O=[N+]([O-])/C(Cl)=C(\NCCO)C(Cl)=C(Cl)Cl	> 100 µM	
CC(C)(C)OC(=O)NCC(c1c[nH]c2ccccc12)c1c[nH]c2ccccc12	30.8 µM	
CCN(CC)c1ccc(/C=N/N=C(N)N)cc1	95.7 µM	13.7 µM
CC(=O)c1c(-c2ccco2)c(C#N)c(=S)n(C2OC(CO)C(O)C(O)C2O)c1C (configuration not stated)	> 100 µM	
CCOC(=O)c1c(SC(=O)c2ccc(Cl)cc2)n(-c2ccccc2)c(=S)n(-c2ccccc2)c1=O	> 100 µM	
O=C(NNC(=O)c1ccncc1)C(=O)Nc1cc(Cl)c(Cl)cc1Cl	> 100 µM	
Clc1cc(Cl)nc(Nc2ccc3c(c2)CCC3)n1	68 µM	
C[C@H](NC(=O)C(C)(Cc1ccc(O)cn1)NC(=O)c1ccccc1)c1ccccc1 (some centres not stated)	> 100 µM	
CCNc1ccc2c(c1)C(=O)N(OS(C)(=O)=O)C2=O	> 100 µM	
C=CCCCN(C(=O)c1ccccc1)c1ccc(C(=O)OC)o1	> 100 µM	
